According to a collection of fitness landscapes (doi:10.1126/science.1257360):
Some of the results follow.

B1: PhoQ; a variant is named by its letters at X, in order, P23837 (parent)
chain: MKKLLRLFFPLSLRVRFLLATAAVVLVLSLAYGMVALIGYSVSFDKTTFRLLRGESNLFYTLAKWENNKLHVELPENIDKQSPTMTLIYDENGQLLWAQRDVPWLMKMIQPDWLKSNGFHEIEADVNDTSLLLSGDHSIQQQLQEVREDDDDAEMTHSVAVNVYPATSRMPKLTIVVVDTIPVELKSSYMVWSWFIYVLSANLLLVIPLLWVAAWWSLRPIEALAKEVRELEEHNRELLNPATTRELTSLVRNLNRLLKSERERYDKYRTTLTDLTHSLKTPLXXLQXXLRSLRSEKMSVSDAEPVMLEQISRISQQIGYYLHRASMRGGTLLSRELHPVAPLLDNLTSALNKVYQRKGVNISLDISPEISFVGEQNDFVEVMGNVLDNACKYCLEFVEISARQTDEHLYIVVEDDGPGIPLSKREVIFDRGQRVDTLRPGQGVGLAVAREITEQYEGKIVAGESMLGGARMEVIFGRQHSAPKDE

Variants of: B1
Assay: enrichment ratio after two sorts for PhoP signalling (ratio (wild type AVST 3.29)); higher = more functional
Settings: with PhoP (E. coli)
In the case of SPMT, the enrichment ratio is reported as ≤ 0.25. For QDDY, the enrichment ratio was ≤ 0.25. With VGYQ the enrichment ratio was ≤ 0.25. DQWV was tested, and the enrichment ratio was ≤ 0.25. With RMAA the enrichment ratio was ≤ 0.25. ASVH showed an enrichment ratio of 8.62. For PGYQ, the enrichment ratio was ≤ 0.25. For ANYS, the enrichment ratio was ≤ 0.25. TCEW was tested, and the enrichment ratio was ≤ 0.25. HYKY was tested, and the enrichment ratio was ≤ 0.25. KEIH was tested, and the enrichment ratio was ≤ 0.25. In the case of LFCG, the enrichment ratio is reported as ≤ 0.25. VWLY was tested, and the enrichment ratio was ≤ 0.25. With MDEC the enrichment ratio was ≤ 0.25. In the case of DIGE, the enrichment ratio is reported as ≤ 0.25. HSFA was tested, and the enrichment ratio was ≤ 0.25. In the case of TQGG, the enrichment ratio is reported as 1.42. For QPLP, the enrichment ratio was ≤ 0.25. For RATD, the enrichment ratio was ≤ 0.25. With LPAL the enrichment ratio was ≤ 0.25. In the case of QPEP, the enrichment ratio is reported as ≤ 0.25. For KKNR, the enrichment ratio was ≤ 0.25. In the case of KLCE, the enrichment ratio is reported as ≤ 0.25. WQCY was tested, and the enrichment ratio was ≤ 0.25. For VVQK, the enrichment ratio was ≤ 0.25. In the case of CSHG, the enrichment ratio is reported as ≤ 0.25. For MQGL, the enrichment ratio was ≤ 0.25. With KGSE the enrichment ratio was ≤ 0.25. Work on THLE yielded an enrichment ratio of 1.14. For PKLI, the enrichment ratio was ≤ 0.25. For FLTS, the enrichment ratio was ≤ 0.25. In the case of MDAN, the enrichment ratio is reported as 2.34. With LYMA the enrichment ratio was ≤ 0.25. AVIV was tested, and the enrichment ratio was ≤ 0.25. For TLHY, the enrichment ratio was ≤ 0.25. In the case of IWSE, the enrichment ratio is reported as ≤ 0.25. In the case of NRHR, the enrichment ratio is reported as ≤ 0.25. AVPE was tested, and the enrichment ratio was ≤ 0.25. In the case of WFNK, the enrichment ratio is reported as ≤ 0.25. In the case of SAFC, the enrichment ratio is reported as ≤ 0.25. With DQID the enrichment ratio was ≤ 0.25. With MLRE the enrichment ratio was ≤ 0.25. MGRE was tested, and the enrichment ratio was ≤ 0.25. For LTTH, the enrichment ratio was ≤ 0.25. ETVY was tested, and the enrichment ratio was ≤ 0.25. For RFIA, the enrichment ratio was ≤ 0.25. VERH was tested, and the enrichment ratio was ≤ 0.25. With ESRQ the enrichment ratio was ≤ 0.25. For QSYR, the enrichment ratio was ≤ 0.25. DIEN was tested, and the enrichment ratio was ≤ 0.25. With AKTA the enrichment ratio was ≤ 0.25. In the case of LKAP, the enrichment ratio is reported as ≤ 0.25. Variant QSLS has an enrichment ratio of 0.374. For SYQG, the enrichment ratio was ≤ 0.25. For LRRG, the enrichment ratio was ≤ 0.25. For RWNC, the enrichment ratio was ≤ 0.25. With KDSD the enrichment ratio was ≤ 0.25. For HGTK, the enrichment ratio was ≤ 0.25. For VRFF, the enrichment ratio was ≤ 0.25. In the case of TRVT, the enrichment ratio is reported as 0.41. In the case of FTES, the enrichment ratio is reported as ≤ 0.25. QRNT was tested, and the enrichment ratio was ≤ 0.25. GAIL was tested, and the enrichment ratio was 2.75. In the case of HRWV, the enrichment ratio is reported as ≤ 0.25. TLLL gave an enrichment ratio of 0.398. For LNVY, the enrichment ratio was ≤ 0.25. In the case of DPNL, the enrichment ratio is reported as ≤ 0.25. For MDVQ, the enrichment ratio was ≤ 0.25. RFPI was tested, and the enrichment ratio was ≤ 0.25. PASI was tested, and the enrichment ratio was ≤ 0.25. In the case of NTYF, the enrichment ratio is reported as ≤ 0.25. NFGV was tested, and the enrichment ratio was ≤ 0.25. For LVHY, the enrichment ratio was ≤ 0.25. Work on SKVL yielded an enrichment ratio of 6.09. In the case of YQMM, the enrichment ratio is reported as ≤ 0.25. In the case of SMET, the enrichment ratio is reported as ≤ 0.25. MEVN showed an enrichment ratio of 17.3. In the case of INFC, the enrichment ratio is reported as ≤ 0.25. In the case of ITHT, the enrichment ratio is reported as ≤ 0.25. RHGS was tested, and the enrichment ratio was ≤ 0.25. TCQV gave an enrichment ratio of 10.1. In the case of VRRP, the enrichment ratio is reported as ≤ 0.25. In the case of PTEH, the enrichment ratio is reported as ≤ 0.25. RYEY was tested, and the enrichment ratio was ≤ 0.25. QSHF was tested, and the enrichment ratio was 9.45. In the case of PDCH, the enrichment ratio is reported as ≤ 0.25. With VPCD the enrichment ratio was ≤ 0.25. GCTT was tested, and the enrichment ratio was ≤ 0.25. In the case of KCCP, the enrichment ratio is reported as ≤ 0.25. For FFRE, the enrichment ratio was ≤ 0.25. TKWT showed an enrichment ratio of 0.945. FHQT was tested, and the enrichment ratio was ≤ 0.25. With GLFQ the enrichment ratio was ≤ 0.25. LDWF was tested, and the enrichment ratio was 0.495. For IFNS, the enrichment ratio was ≤ 0.25. In the case of NKMN, the enrichment ratio is reported as ≤ 0.25. For RITA, the enrichment ratio was ≤ 0.25. With WSRM the enrichment ratio was ≤ 0.25. NVFS was tested, and the enrichment ratio was ≤ 0.25. With FVYP the enrichment ratio was ≤ 0.25. For KSQN, the enrichment ratio was ≤ 0.25. For HWIF, the enrichment ratio was ≤ 0.25. For TWFY, the enrichment ratio was ≤ 0.25. GSVA was tested, and the enrichment ratio was ≤ 0.25. In the case of DPVY, the enrichment ratio is reported as ≤ 0.25. HWGC was tested, and the enrichment ratio was ≤ 0.25. In the case of TAKE, the enrichment ratio is reported as ≤ 0.25. For AGIR, the enrichment ratio was 0.567. With KHSG the enrichment ratio was ≤ 0.25. For EPSY, the enrichment ratio was ≤ 0.25. In the case of HTRI, the enrichment ratio is reported as ≤ 0.25. For IYEQ, the enrichment ratio was ≤ 0.25. For AEYE, the enrichment ratio was ≤ 0.25. For TCHE, the enrichment ratio was ≤ 0.25. In the case of WKWC, the enrichment ratio is reported as ≤ 0.25. PIKK was tested, and the enrichment ratio was ≤ 0.25. For QLLT, the enrichment ratio was ≤ 0.25. PHVG was tested, and the enrichment ratio was ≤ 0.25. For VPKG, the enrichment ratio was ≤ 0.25. In the case of WHAK, the enrichment ratio is reported as ≤ 0.25. PFTW was tested, and the enrichment ratio was ≤ 0.25. In the case of QLEM, the enrichment ratio is reported as ≤ 0.25. For YFDH, the enrichment ratio was ≤ 0.25. Variant LSHM has an enrichment ratio of 4.14. With WESL the enrichment ratio was ≤ 0.25. WRTM was tested, and the enrichment ratio was ≤ 0.25. In the case of VKST, the enrichment ratio is reported as ≤ 0.25. For EGYH, the enrichment ratio was ≤ 0.25. Variant TTMR has an enrichment ratio of 5.27. With FIED the enrichment ratio was ≤ 0.25. AHEV was tested, and the enrichment ratio was ≤ 0.25. For MDCA, the enrichment ratio was ≤ 0.25. With RMKS the enrichment ratio was ≤ 0.25. For SAVF, the enrichment ratio was 4.22. In the case of SIQA, the enrichment ratio is reported as 0.295. In the case of YCTI, the enrichment ratio is reported as ≤ 0.25. In the case of IHQG, the enrichment ratio is reported as ≤ 0.25. For YRGV, the enrichment ratio was ≤ 0.25. Work on SQAL yielded an enrichment ratio of 7.54. LERA was tested, and the enrichment ratio was ≤ 0.25. For YCYI, the enrichment ratio was ≤ 0.25. SLDC was tested, and the enrichment ratio was ≤ 0.25. With PIFG the enrichment ratio was ≤ 0.25. In the case of YMAT, the enrichment ratio is reported as ≤ 0.25. HTAW was tested, and the enrichment ratio was ≤ 0.25. Work on MGHI yielded an enrichment ratio of 19.7. With VNRN the enrichment ratio was ≤ 0.25. SANI was tested, and the enrichment ratio was ≤ 0.25. For RYCR, the enrichment ratio was ≤ 0.25. Variant SQKC has an enrichment ratio of 0.303. For VDPC, the enrichment ratio was ≤ 0.25. With FYMM the enrichment ratio was ≤ 0.25. In the case of FRHV, the enrichment ratio is reported as ≤ 0.25.
